# Laboratory results taken from the supplement of paper PMC11417369.
# ± gives the standard deviation of the averaged measurements. The list shows a part of the results.
# System: PfAP2-EXP AP2 domain (GST-tagged)
# Test: gcPBM binding intensity (ln(normalized median fluorescence intensity)); higher = stronger DNA binding
# Procedure, shortened: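 An Agilent 4 × 180k array carrying primer-extended double-stranded 36-bp intergenic genomic probes and negative controls received GST-tagged P. falciparum DNA-binding domains expressed in E. coli, about 25 μg on average, for 1 h. The binding buffer contained 1× PBS, 1% milk, 0.2 mg/ml BSA, 0.5% salmon testes DNA and 0.03% Triton X-100. Binding intensity is the top Masliner-normalised natural-log median intensity across replicate spots of either probe orientation, read after Alexa488 anti-GST antibody staining and a 488 nm scan.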
row,Sequence,gcPBM binding intensity (ln)
1,CTTATATATACATATACACACACACCCATATATATA [CACACA_site8705],8.76 ± 0.33
2,ATGTAGACAACATATGAACACACAAAATATTTTTTT [CACACA_site8955],8.53 ± 0.45
3,TTAACAAAATTTTTAACACACAAAAAAAAAAAAAAA [CACACA_site1828],8.23 ± 0.47
4,CCAAAATTTATAAATTGTACATATTTTTAAATTCTT [XGTACX_site833],8.4 ± 0.53
5,ATAAAAGAATTAAATAATCAAAATGATTATTTTATA [CACACA_negctrl_site466],7.76 ± 0.42
6,GATAAATAATAATAAGGTACACATAAAATATTCCTT [XGTACX_site2963],8.29 ± 0.36
7,AATTATATACATAAGTGTACATAATATATAAACATA [XGTACX_site793],8.31 ± 0.28
8,TTTTCAATTAATAATACACACATGTATTTATTATTA [CACACA_site5774],8.3 ± 0.35
9,TGTTGTAAATTAAAGACATGCACGTGAGAAAATATA [TGCATGCA_site285],9.42 ± 0.26
10,TATATATATTTTATATGTACGTATGGAACAATATGA [XGTACX_site8167],8.71 ± 0.53
11,TTTTCTATGCTAAACACACTCATTGTTACAAGTTTT [CACACA_site5531],8.72 ± 0.4
12,TTATTTATTTTTTATACACACAATTATCATTTTAAG [CACACA_site22],8.47 ± 0.45
13,TTATTTTCATATAGGTGTACATAAAAATATTCTTAT [XGTACX_site8861],8.71 ± 0.25
14,AAATTAAGTATATATTGTACACATAATATGATTGTA [XGTACX_site3083],8.26 ± 0.28
15,TATACTAAGAAGTATTTACACACCAACAAGGCGAAA [CACACA_site8963],8.53 ± 0.52
16,TAAGTTTATTGAAATTGTACAAACATAAATGTAAAA [XGTACX_site162],8.6 ± 0.4
17,TTATATTTTTTTTTTTCACACACATTTATATTGTAT [CACACA_site9025],8.56 ± 0.54
18,TATCATAAAAAATATACACACAAAGGATATATATAT [CACACA_site1571],9.3 ± 0.14
19,ATGTTCATTATATGCACACATATATATAAATGTAAT [CACACA_site2908],8.38 ± 0.23
20,TATTTGTTTGTTCGGGTGCTTACATATATTCTTATA [GTGCAC_site9972],9.06 ± 0.59
21,TGTGCCTATAAATTAACACACAGAAATATATAGAGA [CACACA_site818],8.62 ± 0.36
22,TTATTCTGACAGAATTGTACTAATGTCTTTAAAAAA [XGTACX_site1256],8.15 ± 0.39

row,Sequence,gcPBM binding intensity (ln)
1,TTAATTAGAAATCATACACACATATAAATAAATATA [CACACA_site6225],8.36 ± 0.38
2,AAGCACAAAAAATACACACACAAAAAATAAAAAAAG [CACACA_site1840],8.67 ± 0.52
3,GAGAAATGGGGACACACACACATATTATATATATAT [CACACA_site4943],9.71 ± 0.2
4,TATATATATCTGTACACACACACATATAAATAAATA [CACACA_site4405],8.64 ± 0.28
5,ATATAAATATATGTATGTACGCATGTATGTATCTAT [XGTACX_site3290],8.645 ± 0.049
6,TATATGCATAATAACTGTACACAAATTGGGGTTGAT [XGTACX_site459],9.16 ± 0.59
7,ATAATGAACAATATTATATATAAAATATAATTTATA [GTGCAC_negctrl_site564],8.09 ± 0.52
8,ATGTATGTTTGTTATGCACACAAATGCATCTTATTT [CACACA_site8861],8.73 ± 0.31
9,ATTATGTATACATAAACACACATATATATAAAAAAA [CACACA_site262],8.86 ± 0.44
10,ATTATATATATGTGCACACAAAAGATATATATATAT [CACACA_site5205],10 ± 0.17
11,ATATTTATTTGTTAGTGTACATACATATATATATAT [XGTACX_site1347],10 ± 0.12
12,AAATAATTTACTTAATGTACATATATATATATATAT [XGTACX_site8594],10.59 ± 0.092
13,TTTTAATTTATTTATGCACACATATATAATTACACA [CACACA_site8126],8.39 ± 0.26
14,AAAAATAAACAATATATAGTTATATATATATATATA [TGCATGCA_negctrl_site82],10.1 ± 0.29
15,TAAGAAAGACAAAAAAAATGAAAAGAAAAAAAATGA [CACACA_negctrl_site1469],8.52 ± 0.5
16,AAATGTTGAAAAATATGTACATATTATATATATTAT [XGTACX_site1165],8.56 ± 0.33
17,AATATAAGCAAATACACACACACATATATATATATA [CACACA_site3805],10 ± 0.35
18,ATTTAGAAAAAATATACACACAGCCTAAACATGCAT [CACACA_site4067],8.79 ± 0.23
19,TATTTATTTGTTTAAGGTACAGAACAAATTTTTATT [XGTACX_site7414],8.35 ± 0.42
20,CATAAATACATACATACACACATATATATATATATA [CACACA_site2106],10.2 ± 0.41
21,ATATTTATTATTATATGTACGTAACATCTTTATAAA [XGTACX_site7016],8.75 ± 0.37
22,AAATGTTCTTAAAAATGAATAATATATATATATATA [CACACA_negctrl_site796],9.8 ± 0.16

row,Sequence,gcPBM binding intensity (ln)
1,TAAAAAATATTATATACACACAGTATAAAAAAAAAT [CACACA_site4012],8.61 ± 0.53
2,TTATCCTATACAAGGGAAAAATAAAATAAAATAAAT [TGCATGCA_negctrl_site272],8.59 ± 0.41
3,ATATACATATTATAATGTACATATTTTAATAACCTT [XGTACX_site7617],8.44 ± 0.33
4,AGTGTCATATAAAATTGTACTTTTTTTTTTTTCTTT [XGTACX_site5651],8.7 ± 0.29
5,ATTGATTATTTTCTAGTGCATAAAATAATTTTTTTT,8.56 ± 0.21
6,AATTTAAATTAGAATTGTACTAGAAAAGGAATATAT [XGTACX_site6162],8.72 ± 0.37
7,AATATAAATAAAAACACACACAATGGTACAGATATA [CACACA_site5930],8.99 ± 0.43
8,AATTATATAATCTTATAACATAATATAATAACATTT [CACACA_negctrl_site187],8.07 ± 0.44
9,AAAAAAGAAAAAAGGACACACATAAATATACTCACG [CACACA_site2904],8.6 ± 0.57
10,ATAATGTTTCTTTCAACACACAAAAAATGAACACAT [CACACA_site1552],8.78 ± 0.53
11,CATACATACGGACACACACACATATATATATATATA [CACACA_site5598],10.2 ± 0.41
12,TATATAAGCGCATGCACACGCAAAGGTATATAAATA [CACACA_site622],9.29 ± 0.28
13,AAAAAAAAAAAATAGACCTCCTAAGCAAAAGAAAAA [GTGCAC_negctrl_site634],8.37 ± 0.53
14,ATTCTATTATAATATTCACACACTAACGTAAATCAT [CACACA_site2750],8.69 ± 0.42
15,TAATGACTGAAAAATTGTACATATGTATATATGTAT [XGTACX_site2415],8.41 ± 0.29
16,TATACATACATACATACACACACACCGATATATATA [CACACA_site7896],8.77 ± 0.42
17,ATAATTTTCCATATTTGTACATATTTTTTTCCCTTG [XGTACX_site8146],8.9 ± 0.41
18,CGACTTTTAAAATATACACACATATATATATATATA [CACACA_site825],10.2 ± 0.33
19,AATACATAAATATTTTGTACATATTATATAAAATAT [XGTACX_site1627],8.41 ± 0.37
20,GAATGTATTCATAAATGTACTTATAATATTATAATA [XGTACX_site3466],8.46 ± 0.23
21,ATAACATACATAACAACACACAATATTTATATGTAT [CACACA_site210],8.54 ± 0.38
22,ATAAATGAAGATAAATTAAAAAAAAAAAAAAAAAAA [CACACA_negctrl_site992],8.11 ± 0.51

row,Sequence,gcPBM binding intensity (ln)
1,CTTGTACCTAGAAATACACACAATTATATAACTTAT [CACACA_site2838],8.49 ± 0.35
2,ATGAAAAAAAAAAAAAAAAAAAAAAAAAAAAAAAAA [CACACA_negctrl_site1405],8.07 ± 0.3
3,ATATATATTTAATTTACACACAAAAAAAATTGTTGG [CACACA_site961],8.35 ± 0.39
4,ACTTTTTAATAATAATAATTATATATATATATATAT [TGCATGCA_negctrl_site459],9.97 ± 0.34
5,CCACATGAGATGATTACACACATATAAATATTTACA [CACACA_site6222],8.49 ± 0.39
6,TATAAGAAAATAATGTGTACTAAATAATAAATGCAT [XGTACX_site1204],8.82 ± 0.29
7,AGAATATATATAATAGTGCAATGTACAATGAACAAA [GTGCAC_site9577],8.9 ± 0.29
8,TTAAATACTTTTCGAAGTACATTATATATATAATAT [XGTACX_site7530],8.35 ± 0.4
9,CGCAACACTATTTGGGTGCTCTTCAAAAAAAAAAAA [GTGCAC_site9598],8.12 ± 0.43
10,ACGAATTAAATGGATTAATATATATATGTATATTTA [CACACA_negctrl_site1512],8.14 ± 0.32
11,TCCATTCTATTTTTTACACACGTATGTAAATATTAT [CACACA_site2686],8.73 ± 0.47
12,ATTTGCTTTTATTTTACACACTTGCTCCTGTTGTAC [CACACA_site1088],9.18 ± 0.56
13,AAAAAAAAATATATTGCACACCTCTCAATAAAAAAA [CACACA_site172],8.63 ± 0.085
14,TATTTCTTTTGGTTGGTGCATAAAATAATACAATAT [GTGCAC_site9916],8.96 ± 0.057
15,CAGACCTCTTTGTCATGTACATAAAAAAATAAAGAA [XGTACX_site7887],8.82 ± 0.28
16,TATAAACAGACGAAAACACACATATGTAAATATATA [CACACA_site4428],8.79 ± 0.57
17,TACAAAAAGTTATACACACACGTACCTATAAATAGA [CACACA_site6571],8.62 ± 0.52
18,ATAAAAATAATATCATGTACATATGTGTATTGTATT [XGTACX_site1768],8.54 ± 0.38
19,AAAAAGCAGGATTATACACACAAATATTTATATGTT [CACACA_site6634],8.26 ± 0.42
20,GCGTAGTTCGGAAGGGTGCTTTTTTGTTAATAAAAA [GTGCAC_site9592],8.46 ± 0.29
21,TTATGTTATAAATACACACACAAAAGAAAAAAAAAA [CACACA_site7414],8.52 ± 0.45
22,TCCCATAATATTAGTAGTACTATTAATATTTTCAGG [XGTACX_site4925],8.33 ± 0.42
